# Scores whose standard error is large were omitted. The source holds two more conditions with little spread; they are left out. Names with del lack the residues named; names with ins carry added residues between the positions named. For some assays here: The data file names ogerin without a concentration.
# B1: GPR68, Q15743 (parent)
# chain: MGNITADNSSMSCTIDHTIHQTLAPVVYVTVLVVGFPANCLSLYFGYLQIKARNELGVYLCNLTVADLFYICSLPFWLQYVLQHDNWSHGDLSCQVCGILLYENIYISVGFLCCISVDRYLAVAHPFRFHQFRTLKAAVGVSVVIWAKELLTSIYFLMHEEVIEDENQHRVCFEHYPIQAWQRAINYYRFLVGFLFPICLLLASYQGILRAVRRSHGTQKSRKDQIQRLVLSTVVIFLACFLPYHVLLLVRSVWEASCDFAKGVFNAYHFSLLLTSFNCVADPVLYCFVSETTHRDLARLRGACLAFLTCSRTGRAREAYPLGAPEASGKSGAQGEEPELLTKLHPAFQTPNSPGSGGFPTGRLA
# How the values were obtained:
# [1] = variants of: B1; assay: cAMP reporter score (Enrich2 score, wild type = 0); higher = more signal; HEK293T, FACS bins
# [2] = variants of: B1; assay: surface expression score (Enrich2 score, wild type = 0); higher = more signal; HEK293T, FACS bins
Variant,cAMP reporter score ([1]; pH 5.5),cAMP reporter score ([1]; pH 6),"cAMP reporter score ([1]; pH 6, modulator: ogerin)","cAMP reporter score ([1]; pH 6.5, modulator: ogerin)",surface expression score [2]
C287Q,0.544,-1.15,0.009,0.262,-1.57
C287R,-1.01,0.379,-1.12,-0.721,-0.949
C287S,-0.103,–,-0.177,-0.515,–
C287T,0.343,-0.404,0.102,-1.17,-0.526
C287V,-0.359,-1.54,-0.594,-1.4,0.273
C287W,-1.27,-0.866,-1.26,-1.38,0.907
C287Y,-0.837,-1.3,-1.44,-1.44,0.376
C287_V289del,-1.36,-0.617,-2.25,-1.1,-2.37
F288A,0.799,2.01,0.406,0.165,–
F288C,1.2,-0.341,0.327,-0.162,–
F288D,-0.969,-0.999,-1.66,-1.21,-2.72
F288E,-0.979,-1.65,-1.62,-0.778,-1.99
F288G,0.404,-0.44,-0.358,-0.775,-2.35
F288H,-0.658,0.175,-1.02,-0.792,-1.38
F288I,0.622,–,0.986,1.1,-1.94
F288K,-0.327,-0.91,-1.01,-0.567,-1.7

Variant,cAMP reporter score ([1]; pH 5.5),cAMP reporter score ([1]; pH 6),"cAMP reporter score ([1]; pH 6, modulator: ogerin)","cAMP reporter score ([1]; pH 6.5, modulator: ogerin)",surface expression score [2]
F288L,0.511,2.74,0.595,3.47,-0.93
F288M,1.05,–,1.21,1.16,0.325
F288N,-1.33,-0.424,-1.3,-1.25,-1.89
F288Q,-0.614,-1.2,-1.67,-0.406,–
F288R,-0.662,-0.317,-0.628,-0.187,-1.6
F288S,-0.236,0.22,-1.14,-0.979,-1.27
F288T,-2.1,-1.1,-0.333,-1.57,-1.69
F288V,0.844,0.014,0.209,-0.056,-1.91
F288W,-0.362,–,-1.3,-0.589,-0.167
F288Y,-1.24,-0.907,-1.78,-1.25,-1.23
F288_V289del,-0.632,0.716,-1.29,-1.21,-1.54
F288_V289insGS,-0.457,-0.516,-1.48,-0.63,-1.28
V289A,0.281,-0.2,-0.097,-0.649,-0.032
V289C,2.66,–,3.15,–,0.887
V289D,-0.506,-0.246,-0.96,-0.886,–
V289E,-0.242,-0.514,-0.892,-1.29,-2.65
